# Assay results reported in a collection of fitness landscapes (doi:10.1016/j.celrep.2020.107928).
# The full ranking holds about 81,000 sequences; the median of “one-hybrid fitness for binding NBS DNA” is about -0.1, and the highest 2% start at about 0.36. This is one part of the list.
# B1: Caulobacter ParB omega fusion; a variant is named by its letters at X, in order, B8GW30 (parent)
# chain: MESVVVGEPGMSEGRRGLGRGLSALLGEVDAAPAQAPGEQLGGSREAPIEILQRNPDQPRRTFREEDLEDLSNSIREKGVLQPILVRPSPDTAGEYQIVAGERAWRAAQRAGLKTVPIMVRELDDLAVLEIGIIENVQRADLNVLEEALSYKVLMEKFERTQENIAQTIGKSXSHVANXMRLLXLPDEVQSYLVSGELTAXHARAIAAAADPVALAKQIIEGGLSVRETEALARKAPNLSAGKSKGGRPPRVKDTDTQALESDLSSVLGLDVSIDHRGSTGTLTITYATLEQLDDLCNRLTRGI
# Variants of: B1
# Experiment: one-hybrid fitness for binding NBS DNA (the Noc-binding site; scaled: cognate 1, non-cognate 0); higher = stronger binding
# Settings: with NBS DNA site
# How it was run: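 Fitness is the rescaled log change in variant-to-wild-type read ratio, measured by Illumina sequencing of plasmids before and after bacterial one-hybrid selection. The scale puts cognate at 1 and non-cognate at 0. Selection of Caulobacter ParB libraries, four specificity codons randomised, took place in E. coli USO with a HIS3 reporter, site 19 bp from the promoter, over 48 hours at 37°C on M9-minus-histidine with 0.1 mM IPTG and 5 mM 3-AT.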
row,Variant,one-hybrid fitness for binding NBS DNA
1,YGAN,≤ 0.2
2,GFLA,≤ 0.2
3,NSKN,≤ 0.2
4,CISC,≤ 0.2
5,LHRN,≤ 0.2
6,SYVP,≤ 0.2
7,DRQH,≤ 0.2
8,SPQY,≤ 0.2
9,QRIL,≤ 0.2
10,HQRA,≤ 0.2
11,RPCR,≤ 0.2
12,RESR,≤ 0.2
13,CIKS,≤ 0.2
14,DYGG,≤ 0.2
15,SHCW,≤ 0.2
16,NHPR,≤ 0.2
17,NVCG,≤ 0.2
18,VNVC,≤ 0.2
19,PIKG,≤ 0.2
20,DRDF,≤ 0.2
21,YHCS,≤ 0.2
22,AFKF,≤ 0.2
23,QSAV,≤ 0.2
24,WMYP,≤ 0.2
25,NKVI,≤ 0.2

row,Variant,one-hybrid fitness for binding NBS DNA
1,QVSG,≤ 0.2
2,CSCD,≤ 0.2
3,SVSF,≤ 0.2
4,GRYL,≤ 0.2
5,QGVT,≤ 0.2
6,YEAN,≤ 0.2
7,PCAK,≤ 0.2
8,AWKS,≤ 0.2
9,SISG,≤ 0.2
10,PGCA,≤ 0.2
11,STPI,≤ 0.2
12,HLLL,≤ 0.2
13,LPLG,≤ 0.2
14,YDAM,≤ 0.2
15,WCHG,≤ 0.2
16,QMFV,≤ 0.2
17,MRPE,≤ 0.2
18,QYSV,≤ 0.2
19,KLPT,≤ 0.2
20,AASS,≤ 0.2
21,IKSR,≤ 0.2
22,KCNR,0.223
23,CRCT,≤ 0.2
24,VYMR,≤ 0.2
25,NVHR,≤ 0.2

row,Variant,one-hybrid fitness for binding NBS DNA
1,LAVM,≤ 0.2
2,IPKS,≤ 0.2
3,PPHM,≤ 0.2
4,MDPD,≤ 0.2
5,HNLY,≤ 0.2
6,RGRD,≤ 0.2
7,QTTE,≤ 0.2
8,VAMA,≤ 0.2
9,AYNN,≤ 0.2
10,LEPV,≤ 0.2
11,MWVR,≤ 0.2
12,TSIC,≤ 0.2
13,LLVA,≤ 0.2
14,HSTN,≤ 0.2
15,RSEH,≤ 0.2
16,RREV,≤ 0.2
17,HKIS,≤ 0.2
18,VAKC,≤ 0.2
19,TKIK,≤ 0.2
20,QRGT,0.822
21,QVVW,≤ 0.2
22,CIHS,≤ 0.2
23,VLTV,≤ 0.2
24,QALW,≤ 0.2
25,STRV,≤ 0.2

row,Variant,one-hybrid fitness for binding NBS DNA
1,ITGI,≤ 0.2
2,PIGC,≤ 0.2
3,NTNP,≤ 0.2
4,TGIC,≤ 0.2
5,CSQS,≤ 0.2
6,CTAN,≤ 0.2
7,FQHI,≤ 0.2
8,QACR,0.447
9,SYLG,≤ 0.2
10,GGTS,≤ 0.2
11,MHPK,≤ 0.2
12,MVAC,≤ 0.2
13,NVVA,≤ 0.2
14,PKVR,≤ 0.2
15,KPIG,≤ 0.2
16,RGGE,≤ 0.2
17,SEHL,≤ 0.2
18,AGYG,≤ 0.2
19,GFVT,≤ 0.2
20,LRCP,≤ 0.2
21,QRGI,0.37
22,RGAL,≤ 0.2
